Reference: article PMC4336329 (PLoS ONE, 2015)
The campaign covered roughly 310,000 compounds. About 14,000 (4.5%) showed an effect of 50% or more. Effects have a minus sign here. Some of the results follow.

Molecular target: human ether-à-go-go-related gene (hERG) potassium channel (human, UniProt Q12809)
Experiment: primary screen, population patch clamp on CHO cells stably expressing hERG
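Further: peak tail current of the secondary pulse compared with the same well before compound.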

human ether-à-go-go-related gene (hERG) potassium channel, sequence (Q12809 whole entry, looked up): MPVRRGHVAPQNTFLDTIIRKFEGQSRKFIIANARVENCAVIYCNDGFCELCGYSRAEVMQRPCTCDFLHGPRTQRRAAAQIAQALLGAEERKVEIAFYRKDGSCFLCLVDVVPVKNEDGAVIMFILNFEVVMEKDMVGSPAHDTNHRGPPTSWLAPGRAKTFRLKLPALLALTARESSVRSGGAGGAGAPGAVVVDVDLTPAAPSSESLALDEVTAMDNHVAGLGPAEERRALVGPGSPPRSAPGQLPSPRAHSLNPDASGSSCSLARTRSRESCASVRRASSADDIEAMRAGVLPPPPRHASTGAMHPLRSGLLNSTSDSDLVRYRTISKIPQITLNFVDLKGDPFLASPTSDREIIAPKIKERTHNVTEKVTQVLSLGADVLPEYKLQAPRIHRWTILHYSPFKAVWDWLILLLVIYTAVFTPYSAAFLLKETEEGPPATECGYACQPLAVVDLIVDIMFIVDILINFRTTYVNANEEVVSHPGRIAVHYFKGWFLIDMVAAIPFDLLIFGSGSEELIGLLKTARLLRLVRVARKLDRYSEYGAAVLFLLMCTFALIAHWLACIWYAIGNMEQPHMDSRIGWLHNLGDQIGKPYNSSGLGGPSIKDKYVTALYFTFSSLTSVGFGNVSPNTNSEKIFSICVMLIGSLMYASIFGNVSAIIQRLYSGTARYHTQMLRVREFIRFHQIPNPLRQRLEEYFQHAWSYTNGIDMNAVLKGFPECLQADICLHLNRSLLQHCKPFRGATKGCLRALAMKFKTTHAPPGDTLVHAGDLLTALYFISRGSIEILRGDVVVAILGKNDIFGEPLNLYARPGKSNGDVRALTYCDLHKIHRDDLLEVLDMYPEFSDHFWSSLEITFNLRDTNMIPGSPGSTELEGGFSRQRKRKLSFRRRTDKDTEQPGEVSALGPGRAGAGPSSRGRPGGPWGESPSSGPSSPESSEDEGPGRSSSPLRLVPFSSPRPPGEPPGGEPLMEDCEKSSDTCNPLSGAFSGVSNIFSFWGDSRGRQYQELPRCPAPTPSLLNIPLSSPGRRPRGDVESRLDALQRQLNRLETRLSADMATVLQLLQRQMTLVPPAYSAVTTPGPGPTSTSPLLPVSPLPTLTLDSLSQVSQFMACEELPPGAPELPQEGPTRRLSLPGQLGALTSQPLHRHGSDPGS

Compound | hERG current change (%, negative = inhibition) at 10uM
O=C(NCCc1ccc(S(=O)(=O)N2CCCC2)cc1)c1cccs1 | -3.23%
CCOc1ccc(C(=O)Nc2cc(C)ccn2)cc1 | -12.2%
CCC1CN(C(=O)N2CCC(C(=O)NCCc3ccc(OC)cc3OC)CC2)c2ccccc2O1 (stereo not shown) | -17.3%
O=C(CNS(=O)(=O)c1ccccc1)Nc1ccc2c(c1)OCO2 | 16%
O=C(N/N=C/c1cc(Br)ccc1O)c1cccc(N2CCCC2=O)c1 | -3.08%
C[n+]1ccccc1/C=C/c1c(F)cccc1F.[I-] | 18.4%
COc1ccc(NC(=O)CC2C(=O)N(c3cccc(OC)c3)C(=O)N2CCC(C)C)cc1 (stereo not shown) | -2.85%
CC(C)c1ccc(NC(=O)CCNS(=O)(=O)c2cccc3nsnc23)cc1 | -3.65%
O=C(O)CCC(=O)N1CCN(c2cccc(Cl)c2)CC1 | 12%
CCOc1ccccc1N(C(=O)Nc1ccc(Cl)cc1)C1=NCCS1 | 10.6%
Cc1cc(C(=O)Nc2c(C)n(C)n(-c3ccccc3)c2=O)cs1 | -1.85%
O=C(c1cc2ccccc2o1)N1CCC(N2CCC(C(=O)N3CCCC3)CC2)CC1 | -55.7%
O=C(NCCO)c1ccc2nc(Cc3cccc(Cl)c3)oc2c1 | -0.51%
CCOC(=O)C(Oc1ccc2c(-c3ccc(OC)cc3)cc(=O)oc2c1C)c1ccccc1 (stereo not shown) | -2.92%
O=Cc1c[nH]c2ccc(S(=O)(=O)N3CCOCC3)cc12 | -10.1%
CN(C)CCCn1c(SCC(=O)Nc2nc(-c3cccc(Br)c3)cs2)nc2ccccc2c1=O | -20.2%
O=[N+]([O-])c1ccc(Cl)cc1NCc1cccnc1 | 4.83%
COc1[nH]c(/N=C/c2ccccc2)c(C#N)c1C#N | 21.2%
O=C(Cc1ccccc1)Nc1ccnn1C1CCN(Cc2ccc(CO)o2)CC1 | 8.53%
C#CCn1c(=NC(=O)c2ccc(S(=O)(=O)N3CCCc4ccccc43)cc2)sc2cc(S(N)(=O)=O)ccc21 | -0.904%
CCOC(=O)C1=C(C)N=c2s/c(=C/c3ccc(OCC(=O)O)cc3)c(=O)n2C1c1ccc(F)cc1 (stereo not shown) | 15.2%
CC(C)C(=O)N1CCN(c2ccccc2NC(=O)c2ccc([N+](=O)[O-])o2)CC1 | -63%
CCc1ccc(OCC(=O)Nc2ccc(S(=O)(=O)Nc3ccccn3)cc2)cc1 | 8.72%
CC(=O)NC(Cc1ccc(C)cc1)C(=O)NC1CCN(C(=O)c2ccc([N+](=O)[O-])cc2)CC1 (stereo not shown) | -23.2%
Cc1ccc(-c2nn3c(C)nnc3c3ccccc23)cc1S(=O)(=O)NCc1ccccc1 | -29.5%
CCOCCCNC(=O)/C(C#N)=C/c1ccc(C(=O)OC)cc1 | -17%
O=C(O)c1ccc(Nc2nc3c(s2)CCCC3)cc1 | -81.3%
COC(=O)C(NC(=O)CCc1nnc2ccc(N3CCCCC3)nn12)C(C)C (stereo not shown) | -0.109%

Compound | hERG current change (%, negative = inhibition) at 10uM
Cn1c(=O)c(C(=O)COC(=O)c2cc(-c3ccccc3)nc3ccccc23)c(N)n(Cc2ccccc2)c1=O | 6.8%
C/C(=N\NC(=O)c1ccn(C)n1)c1ccc(NC(=O)C2CCCC2)cc1 | 4.84%
CCNC(=O)Nc1cc2nc(C)n(Cc3ccc(Br)cc3)c2nc1C | -0.223%
CC(C)C(NS(=O)(=O)c1ccccc1)C(=O)N1CCCC1 (stereo not shown) | 21.4%
Cc1cccc(NC2=C(C#N)C(=O)NC3(CCCC3)S2)c1 | 0.0945%
Cc1ccc(NCc2nnc(SCC#N)o2)c(C)c1 | -2.24%
CCN(CC)Cc1c(O)ccc2c(-c3ccccc3)cc(=O)oc12 | -22.9%
CCCCN1C(=O)C(=O)N(CC(=O)Nc2sc(C)c(CC)c2C(=O)OCC)C1=O | 12.2%
CC(C(=O)NC1CC1)c1ncc(C(F)(F)F)cc1Cl (stereo not shown) | 13.6%
Cc1ccc2nc(NC(=O)CNS(=O)(=O)c3ccc(Br)s3)sc2c1 | 1.51%
CCc1ccc(-c2cc(C)no2)cc1S(=O)(=O)NCCc1ccc(S(N)(=O)=O)cc1 | -16.6%
Cc1cc(NCCCO)n2c(nc3ccccc32)c1C#N | 4.18%
NC(=O)NOCc1ccccc1F | 11.3%
COc1cccc(OCc2cc(C(=O)N3CCN(C(=O)c4ccco4)CC3)no2)c1 | -51.7%
COc1ccc2c(c1)CCc1c(C(=O)NCc3ccc(F)cc3)noc1-2 | 11.6%
CCCn1c(SCC(=O)Nc2nc(C)c(C(=O)OC)s2)nnc1C(C)C | -18%
COc1ccccc1NS(=O)(=O)c1ccc2c(c1)N(C(C)=O)CC(C)S2 (stereo not shown) | -16.2%
O=C(O)CC/C(=C\c1ccccc1[N+](=O)[O-])c1nc2ccccc2s1 | 8.96%
CCOC(=O)c1cn(CC)c2cc(N3CCCCC3)c(F)cc2c1=O | -2.96%
O=[N+]([O-])c1cccc(NNS(=O)(=O)c2ccccc2F)c1 | -29.4%
CC1=CC=CC2=N/C(=N\S(=O)(=O)c3ccc(F)cc3F)c3ccccc3CN12 | -20.3%
CN(C)c1ccc(N=Cc2ccco2)cc1 | -0.214%
CC(=O)N1CCCc2ccc(NS(=O)(=O)c3ccccc3)cc21 | 11.1%
CCN(CC)C(=O)Cn1cc(S(=O)(=O)CC(=O)Nc2ccc(F)cc2F)c2ccccc21 | -3.36%
O=C(Nc1nccs1)c1ccc(NC(=O)c2ccco2)cc1 | -7.05%
CCCCCCCCSc1n[nH]c(N)n1 | -4.48%
COc1ccc(N(C)S(=O)(=O)c2cccc(C(=O)OC(C)C(=O)NC3CCCCC3C)c2)cc1 (stereo not shown) | 2.83%
